{"source": "patent US20210340213A1", "binders": {"B1": {"name": "CTLA4-Ig variant 99# (Fc fusion)", "chain": "MHVAQPAVVLASSRGIASFVCEYASPDKATEVRVTVLRQADSQVTEVCAATYMMGNELTFLDDSICTFTSSGNQVNLTIQGLRAMDTGLYICKVELMYPPPYYLGIGNGTQIYVIDPEPCPDSDQ[human IgG1 Fc with changes not given here]"}, "B2": {"name": "CTLA4-Ig variant 75# (Fc fusion)", "chain": "MHVAQPAVVLASSRGIASFVCEYASPDKAKATEVRVTVLRQADSQVTEVCAATYMMGNELTFLDDSICTFTSSGNQVNLTIQGLRAMDTGLYICKVELMYPPPYYLGIGNGTQIYVIDPEPCPDSDQ[human IgG1 Fc with changes not given here]"}, "B3": {"name": "CTLA4-Ig variant 95# (Fc fusion)", "chain": "MHVAQPAVVLASSRGIASFVCEYASPHKATEVRVTVLRQADSQVTEVCAATYMMGNELTFLDDSICTFTSSGNQVNLTIQGLRAMDTGLYICKVELMYPPPYYLGIGNGTQIYVIDPEPCPDSDQ[human IgG1 Fc with changes not given here]"}, "B4": {"name": "CTLA4-Ig variant 96# (Fc fusion)", "chain": "MHVAQPAVVLASSRGIASFVCEYASPDKKATEVRVTVLRQADSQVTEVCAATYMMGNELTFLDDSICTFTSSGNQVNLTIQGLRAMDTGLYICKVELMYPPPYYLGIGNGTQIYVIDPEPCPDSDQ[human IgG1 Fc with changes not given here]"}, "B5": {"name": "CTLA4-Ig variant 112# (Fc fusion)", "chain": "MHVAQPAVVLASSRGIASFVCEYASPDKAKATEVRVTVLRQTDSQVTEVCAATYMMGNELTFLDDSICTFTSSGNQVNLTIQGLRAMDTGLYICKVELMYPPPYYLGIGNGTQIYVIDSEPCPDSDQ[human IgG1 Fc with changes not given here]"}, "B6": {"name": "CTLA4-Ig variant 118# (Fc fusion)", "chain": "MHVAQPAVVLASSRGIASFVCEYASPDKAKATEVRVTVLRQADSQVTEVCAATYMMGNELTFLDDSICTFTSSGNQVNLTIQGLRAMDTGLYICKVELMYPPPYYLGIGNGTQIYVIDSEPCPDSDQ[human IgG1 Fc with changes not given here]"}, "B7": {"name": "CTLA4-Ig variant 122# (Fc fusion)", "chain": "MHVAQPAVVLASSRGIASFVCEYASPDKKATEVRVTVLRQADSQVTEVCAATYMMGNELTFLDDSICTFTSSGNQVNVTIQGLRAMDTGLYICKVELMYPPPYYLGIGNGTQIYVIDPEPCPDSDQ[human IgG1 Fc with changes not given here]"}, "B8": {"name": "CTLA4-Ig variant 131# (Fc fusion)", "chain": "MHVAQPAVVLASSRGIASFVCEYASPDKAKATEVRVTVLRQTDSQVTEVCAATYMMGNELTFLDDSICTFTSSGNQVNLTIQGLRAMDTGLYICKVELMYPPPYYLGIGNGTQIYVIDPEPCPDSDQ[human IgG1 Fc with changes not given here]"}, "B9": {"name": "CTLA4-Ig variant 71# (Fc fusion)", "chain": "MHVAQPAVVLASSRGIASFVCEYASPDKAKATEVRVTVLRQADSQVTEVCAATYMMGNELTFLDDSICTGTSSGNQVNLTIQGLRAMDTGLYICKVELMYPPPYYLGIGNGTQIYVIDPEPCPDSDQ[human IgG1 Fc with changes not given here]"}, "B10": {"name": "CTLA4-Ig variant 132# (Fc fusion)", "chain": "MHVAQPAVVLASSRGIASFVCEYESPHKANEIRVTVLRQANSQVTEVCAMTYMKGDELTFLDDPSCTGTFSGNQVNLTIQGLRAADTGLYICKVELMYPPPYYLGFGNGTQIYVIDPEPCPDSDQ[human IgG1 Fc with changes not given here]"}, "B11": {"name": "CTLA4-Ig variant 133# (Fc fusion)", "chain": "MHVAQPAVVLASSRGIASFVCEYASPDKAKATEVRVTVLRQADSQVTEVCAATYMMGNELTFLDDSICTFTSSGNQVNLTIQGLRAMDTGLYICMVELMYPPPYYLGIGNGTQIYVIDPEPCPDSDQ[human IgG1 Fc with changes not given here]"}, "B12": {"name": "CTLA4-Ig variant 134# (Fc fusion)", "chain": "MHVAQPAVVLASSRGIASFVCEYASPDKKATEVRVTVLRQADSQVTEVCAATYMMGNELTFLDDSICTFTSSGNQVNLTIQGLRAMDTGLYICMVELMYPPPYYLGIGNGTQIYVIDPEPCPDSDQ[human IgG1 Fc with changes not given here]"}, "B13": {"name": "CTLA4-Ig variant 142# (Fc fusion)", "chain": "MHVAQPAVVLASSRGIASFVCEYASPDKAKATEVRVTVLRQTDSQVTEVCAATYMMGNELTFLDDSICTFTSSGNQVNLTIQGLRAMDTGLYICMVELMYPPPYYLGIGNGTQIYVIDPEPCPDSDQ[human IgG1 Fc with changes not given here]"}}}
{"target": "CD80/CD86 on the surface of Raji cells", "assay": "cell-based or functional assay", "units": {"IC50 on IL2 secretion, Test I": "µg/mL", "IC50 on IL2 secretion, Test II": "µg/mL", "IC50 on IL2 secretion, Test III": "µg/mL", "IC50 on IL2 secretion, Test IV": "µg/mL"}}
{"binder": "B1", "IC50 on IL2 secretion, Test I": 1.67}
{"binder": "B2", "IC50 on IL2 secretion, Test I": 0.0728, "IC50 on IL2 secretion, Test II": 0.117, "IC50 on IL2 secretion, Test III": 0.0838}
{"binder": "B3", "IC50 on IL2 secretion, Test I": 0.104}
{"binder": "B4", "IC50 on IL2 secretion, Test II": 0.141}
{"binder": "B5", "IC50 on IL2 secretion, Test II": 0.695}
{"binder": "B6", "IC50 on IL2 secretion, Test II": 0.414}
{"binder": "B7", "IC50 on IL2 secretion, Test II": 0.4}
{"binder": "B8", "IC50 on IL2 secretion, Test II": 0.0825, "IC50 on IL2 secretion, Test III": 0.0594}
{"binder": "B9", "IC50 on IL2 secretion, Test I": 0.665}
{"binder": "B10", "IC50 on IL2 secretion, Test III": 0.0989}
{"binder": "B11", "IC50 on IL2 secretion, Test III": 0.0264}
{"binder": "B12", "IC50 on IL2 secretion, Test III": 0.0494}
{"binder": "B13", "IC50 on IL2 secretion, Test III": 0.0188, "IC50 on IL2 secretion, Test IV": 0.00971}
